Whole data set: some 33,000 sequences, median “E-score (-0.5 to 0.5)” near -0.035, cut for the highest 2% near 0.34. The list shows a part of the results.
These sequences were tested against T1, Mot3 (UniProt P54785) (assay: PBM E-score (8-mer binding enrichment) (E-score (-0.5 to 0.5)); higher = stronger / more preferred TF binding; most listed sequences are background and not binding sites). Conditions: protein concentration: 200 nM; construct: GST-full length.
T1 sequence: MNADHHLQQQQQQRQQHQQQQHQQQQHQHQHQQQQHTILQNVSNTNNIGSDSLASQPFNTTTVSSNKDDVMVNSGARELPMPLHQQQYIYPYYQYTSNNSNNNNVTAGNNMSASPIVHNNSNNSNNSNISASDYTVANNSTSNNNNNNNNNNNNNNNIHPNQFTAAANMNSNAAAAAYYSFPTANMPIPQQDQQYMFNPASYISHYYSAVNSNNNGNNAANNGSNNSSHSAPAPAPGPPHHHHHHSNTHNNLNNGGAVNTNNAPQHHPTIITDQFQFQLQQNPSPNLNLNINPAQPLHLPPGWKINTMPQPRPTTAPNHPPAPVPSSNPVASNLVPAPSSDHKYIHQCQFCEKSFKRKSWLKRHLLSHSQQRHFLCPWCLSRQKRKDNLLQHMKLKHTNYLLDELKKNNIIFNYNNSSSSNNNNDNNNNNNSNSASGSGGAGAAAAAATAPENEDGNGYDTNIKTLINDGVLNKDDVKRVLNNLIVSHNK
Protocol: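 Universal 'all 10-mer' protein binding microarrays (Agilent AMADID 015681) probed with GST-tagged S. cerevisiae TFs (full-length or DBD) made by in vitro transcription/translation (PURExpress), about 100-200 nM. Bound TF was detected with fluorescent anti-GST. Each ungapped 8-mer (which stands for itself and its reverse complement) is scored by the PBM enrichment score (E-score), a modified Wilcoxon-Mann-Whitney statistic from -0.5 to +0.5, computed with the Universal PBM Analysis Suite. Scale: above 0.35 generally sequence-specific binding.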

Sequence	PBM E-score
CTCTACCC	-0.225
TAGGAAAA	0.384
CTCCTAAA	0.00392
CAATATTA	0.0698
ACCGCTTA	-0.0982
CCGTCTTA	-0.231
GACTTGAC	0.024
AATGAAGC	-0.0388
CCCTGTCC	-0.124
CGCCATTA	-0.0118
CTGCAAAC	-0.0163
CAGCAAGA	-0.117
AATCGCTG	-0.184
CGAATGTA	0.186
GCGGCAAA	-0.205
AATCCCCC	-0.267
ATGTAATC	0.367
AGAGATTG	0.0517
AGAGCTGA	-0.205
AGGCGGAG	-0.273
GCGCAGCC	-0.343
AGTCGGCA	0.00196
ATTGTTCC	0.0862
AAGCTCGG	-0.178

Sequence	PBM E-score
GCGTTGCC	0.177
CTTAGCGA	0.0773
CAATGTCG	0.0795
AATGAGTC	-0.0515
AGCGCCTG	0.265
GACCATTA	-0.0478
ACTTACAC	0.217
AACAAGCG	0.211
TACCGAAA	0.0135
TACACAGA	0.33
CCTTACAC	0.298
AAGAAGCT	-0.00753
ATGCTTAG	0.0516
GGAGCTAA	-0.0703
AACATGGT	0.297
TGAGCTAA	-0.083
AGAGACAA	-0.146
GATAGGCA	0.473
CAAACTCC	-0.0232
AGGATTAA	0.0264
ATGGTCAG	-0.109
GAACTGGA	-0.0796
TATGAAAA	0.00052
CGCGTGAA	0.172

Sequence	PBM E-score
CATAGGGG	-0.236
GCCGACCA	-0.166
GGACGCCA	-0.282
ACAAATGA	0.113
AGACTACT	0.0356
ATCCTAAC	0.137
CGAGCCGC	-0.0992
AGGTAAGG	0.254
GCATTGAA	0.0529
GTAGCGAC	-0.0445
CGTAAAAC	0.202
CGACATTA	0.151
GTAGCCTA	0.177
ACTCTGAC	-0.157
GGCCTAGA	-0.201
AGGTAGTC	-0.0855
AGCCAGAC	-0.109
ATCCTGGA	0.00329
GGTCCATA	-0.176
ATGATTTC	0.0179
CCCCCAGG	-0.159
GTGAAACA	0.103
GGGGGATA	-0.283
GCGCTACA	0.0184

Sequence	PBM E-score
AAATGTCC	0.00503
AATGGCGT	-0.0278
AAATTCCC	-0.107
AAGTAAGA	0.124
GGCCAGGA	-0.232
CGTGTCCC	-0.0172
ACTCATCG	-0.0267
GACAGGAC	-0.231
GCTAACGA	-0.117
AACTTACA	0.284
CATAAATG	-0.172
CATCTTTC	0.174
ACACCCAT	-0.0356
TCACCCCA	-0.125
AATATCCA	0.053
AGTATGAC	-0.103
CACCCCAG	-0.066
CCGTCAAC	-0.138
AATCCACA	-0.0213
AGGTTGGG	-0.173
GAGTGGAC	-0.192
GCGATGAC	-0.0443

— the supplement of paper PMC3334620
